Results reported in the supplement of paper PMC10126150.
Sequences with one replicate were seen in a single cluster, so their values are uncertain.

test system: ATP; test: switch fluorescence ratio, 500 uM ATP over buffer (Cy3 cluster intensity, sum of 5 cycles each) (fold (ratio)); higher = stronger signal-on switching upon ATP binding; sequences stand for … in TCGTCGGCAGCGTCAGATGTGTATAAGAGACAGTTTTTTTTTTTTTTTTTTTTTTTTT…TC; settings: aptamer strand: ATP DNA aptamer (quencher-CACCTGGGGGAGTATTGCGGAGGAAGG + anchor), 100 nM annealed; ATP concentration: 500 uM; one replicate
How it was run: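 Exposure to 500 uM ATP lasted 15 min at 22 °C before imaging, and a selection-buffer image was taken beforehand, for Cy3-labelled switching-strand clusters on a modified Illumina MiSeq flow-cell annealed to 100 nM quencher-labelled ATP aptamer. Five buffer/ATP cycles were run with NaOH stripping and re-annealing between them. The fluorescence ratio per cluster is summed target-cycle over summed buffer-cycle Cy3 intensity, averaged per switch-domain sequence. Clusters outside 100-1000 RFU were excluded.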

| Sequence | switch fluorescence ratio |
| --- | --- |
| CACTGCCGTG | 1.01 |
| GATGGGCGCG | 0.989 |
| GTAATAAATG | 1.02 |
| GATCGCACGC | 1.94 |
| ACAGTGTCAG | 0.951 |
| CTGAGCCTGG | 1.02 |
| TTGGCTCAGA | 1.03 |
| AATCATTCGG | 0.998 |
| AAACAGGACT | 1.08 |
| TATATTCGTA | 1.01 |
| CGCACATAGT | 2.31 |
| GGCAGCTTAT | 1.02 |
| AATCGATGCT | 0.976 |
| ATAATACAGA | 1.04 |
| TCTAAGAGAT | 0.978 |
| GTCGTTTTAC | 1.04 |
| GTATTGGAAC | 0.998 |
| TTCGGTACCT | 1.06 |
| GCACCTGAAA | 1.01 |
| TCCGCCGATT | 1.02 |
| CTAATGACGA | 1.04 |
| ACAAGGGAAA | 1.03 |

| Sequence | switch fluorescence ratio |
| --- | --- |
| GGGGTGTGTT | 1.03 |
| ATCCACAATG | 1.31 |
| ATTGTAT | 0.937 |
| TCGATAGTGG | 1.01 |
| CGAATTGTGC | 0.954 |
| CCGCCGGGGA | 2.12 |
| GGATTGTGTG | 0.954 |
| TACTCCGCCA | 2.91 |
| GCACTATACT | 1.62 |
| GGGGGAAATC | 1.01 |
| CCGGTGGGGG | 1.04 |
| CTTGGGGTGG | 0.981 |
| GAACCCAGTT | 0.953 |
| GGTTCAGTGC | 1.04 |
| CCCTCAAATT | 1.16 |
| TTCACTTGAC | 1.09 |
| GAACACCGGC | 1.04 |
| GTGGTTTCAG | 1 |
| GATGGGTGTT | 1 |
| GGTCATGTCA | 1.03 |
| GTGAGACGA | 1 |
| CGCAAATTGC | 2.15 |

| Sequence | switch fluorescence ratio |
| --- | --- |
| CACTGTCGT | 0.979 |
| ACATGAAAAC | 1.02 |
| TCGTACACG | 1.05 |
| TATCGGGAAA | 0.978 |
| ATGATCAGT | 0.996 |
| GCAACTATGA | 1.07 |
| GTTAACTTCG | 1.03 |
| ATTACCGA | 1.03 |
| CATGCTCGGT | 0.996 |
| AACAAACGCT | 1.22 |
| CTATGTTCTA | 1.01 |
| AGGGGTCGCT | 1.02 |
| ATGACAAGTA | 1.08 |
| GTTTCAAGGC | 1.12 |
| GCGCTACTAT | 1.04 |
| GCCGCCAAAA | 3.9 |
| TTCAGCCTTG | 0.965 |
| GCCTGGTGGG | 1.04 |
| TTCTGGTTAG | 0.979 |
| CACTGGCGCG | 1.03 |
| TTGTTGACGG | 0.967 |
| CCATGGGACG | 1 |

| Sequence | switch fluorescence ratio |
| --- | --- |
| CTTCTGCCGA | 1.07 |
| CGACTGGGTC | 0.985 |
| TTCAGGTATC | 1.01 |
| TTTAGTGAC | 1.02 |
| TGCGGTTTC | 1.02 |
| ATCTTTCATT | 0.978 |
| ACATTACG | 1.48 |
| AGCCGGGTGA | 1.13 |
| TGGTTTCACC | 0.981 |
| TGACTCCGTT | 1.96 |
| GTTGTAGACG | 1.02 |
| ACACCAAAAG | 0.953 |
| CGGCAAATCA | 1.06 |
| GCGAAGGTAT | 1 |
| ACACCCTGGC | 1.26 |
| ATTCAAAG | 1.05 |
| TGCTGGTTA | 1.02 |
| AGTGGTTTCG | 0.959 |
| GTGTGTCA | 0.961 |
